Results on 26 compounds are retold here after PubChem BioAssay AID360 (National Center for Advancing Translational Sciences (NCATS), 2006).

Hit rate of the full screen: of about 48,000 compounds, about 550 (1.1%) were called active. Another 4% or so got no clear call; they are omitted. Rule as the data show it: active = potency below about 15 µM; inconclusive = mostly about 16 µM to 33 µM; inactive = weaker than that. This is one part of the list.
Potency is read from the fitted curve at half-maximal effect.

For this assay, the target named is Lysosomal acid glucosylceramidase (Homo sapiens) (UniProt P04062). Put plainly: Glucocerebrosidase.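 Also: the screen sought inhibitors.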 The settings on record: purified enzyme, resorufin glucoside fluorescence (screen aimed at inhibitors), 20 min. An outline of the steps: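 Wild-type enzyme at 0.2 nM final in 50mM citric acid/KH2PO4, 10mM sodium taurocholate, 0.01% tween-20, pH 5.9, with resorufin beta-D-glucopyranoside at 30 uM final. Compounds titrated, 20 min at RT, red fluorescence read; AC50 from titration.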
Chain of UniProt P04062 (P04062 whole entry, looked up): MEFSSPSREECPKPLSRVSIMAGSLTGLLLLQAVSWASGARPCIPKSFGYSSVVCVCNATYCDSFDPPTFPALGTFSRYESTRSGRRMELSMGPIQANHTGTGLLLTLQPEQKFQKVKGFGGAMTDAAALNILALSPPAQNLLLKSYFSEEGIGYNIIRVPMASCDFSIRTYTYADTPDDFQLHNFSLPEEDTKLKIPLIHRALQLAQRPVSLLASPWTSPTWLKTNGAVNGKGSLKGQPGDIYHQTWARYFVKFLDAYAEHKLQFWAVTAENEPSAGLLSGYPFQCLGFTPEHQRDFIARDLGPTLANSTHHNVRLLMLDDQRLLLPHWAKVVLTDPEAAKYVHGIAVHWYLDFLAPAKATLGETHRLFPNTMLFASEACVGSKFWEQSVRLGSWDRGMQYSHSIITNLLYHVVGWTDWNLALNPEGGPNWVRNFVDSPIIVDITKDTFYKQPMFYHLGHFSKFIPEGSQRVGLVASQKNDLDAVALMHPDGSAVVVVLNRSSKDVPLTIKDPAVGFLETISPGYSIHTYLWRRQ
For `OCCn1c(CSc2nnc(-c3ccco3)n2-c2ccccc2)nc2ccc(Cl)cc21`, the Potency is inactive: > 76.9 µM.

Take `CC(Oc1ccc(Cl)cc1)C(=O)Nc1ncccn1` (stereo unspecified): the Potency was inactive: > 76.9 µM.

`CCc1nc(NCc2ccco2)c2oc3ccccc3c2n1`: the Potency is inactive: > 76.9 µM.

For the compound `Cn1c(=O)c2cc(S(=O)(=O)NCCC(=O)N3CC=C(c4ccccc4)CC3)ccc2n(C)c1=O`, the Potency was inactive: > 76.9 µM.

Consider `O=C(CCn1c(SCC(=O)NCc2ccco2)nc2ccccc2c1=O)NCCc1ccccc1`, for which the Potency is inactive: > 76.9 µM.

Regarding `Cn1c(=O)[nH]c(=O)c2c1nc(SCC(O)CO)n2Cc1ccccc1Cl` (stereo unspecified), the Potency is inactive: > 76.9 µM.

On to `CSCC[C@H](NC(=O)NCc1cccs1)C(=O)O`, for which the Potency is inactive: > 76.9 µM.

Regarding `COCCN1C(=O)C(O)=C(C(C)=O)C1c1ccc(OC)c(OC)c1` (stereo unspecified), the Potency is inactive: > 76.9 µM.

Consider `Cn1c2ccccc2c2ncn(CCN3CCOCC3)c(=O)c21`, for which the Potency is inactive: > 76.9 µM.

For the compound `CN(CC(=O)Nc1nccs1)S(=O)(=O)c1ccc(F)cc1`, the Potency is inactive: > 76.9 µM.

As for `CC(C)(CO)NCc1ccccc1OCC(=O)Nc1ccccc1`, the Potency is inactive: > 76.9 µM.

For the compound `O=C(CSc1nc2[nH]ncc2c(=O)n1-c1ccccc1)c1ccc2c(c1)OCCO2`, the Potency is inactive: > 76.9 µM.

For the compound `CCCS(=O)(=O)N1CCCC(C(=O)NCCN(CC)CC)C1` (stereo unspecified), the Potency was inactive: > 76.9 µM.

Take `O=C(CSc1nnc(-c2cnccn2)n1Cc1ccco1)c1ccccc1`: the Potency is inactive: > 76.9 µM.

As for `CCCCN(C(=O)NC(=O)C1=C(N2CCOCC2)/C(=C/c2ccccc2)CC1)S(C)(=O)=O`, the Potency was inactive: > 76.9 µM.

Take `Cc1cc2cc(CN3C(=O)c4ccccc4C3=O)ccc2n1C`: the Potency is inactive: > 76.9 µM.

`Cc1ccccc1-n1c(C)nnc1SCc1nc2ccccc2s1`: the Potency was inactive: > 76.9 µM.

Regarding `COc1nc(C)ccc1-c1noc(-c2ccncc2)n1`, the Potency is inactive: > 76.9 µM.

As to `CC(=O)Nc1nc(=O)c2ccccc2s1`, the Potency is inactive: > 76.9 µM.

For `CCC(=O)NC(c1ccccc1)c1nc2ccccc2[nH]1` (stereo unspecified), the Potency was inactive: > 76.9 µM.

With `Cn1c(=O)[nH]c(=O)c2c1nc(NCCCO)n2Cc1ccc(F)cc1`, the Potency was inactive: > 76.9 µM.

`Cc1nc(C)c(-c2ccccc2)c(=O)[nH]1`: the Potency is inactive: > 76.9 µM.

Turning to `CC1Cc2ccccc2N1C(=O)COC(=O)C1=COCCO1` (stereo unspecified), the Potency was inactive: > 76.9 µM.

For the compound `CC1(C)Oc2ccc(C(=O)NC3CC3)cc2N(CC(=O)N2CCOCC2)C1=O`, the Potency was inactive: > 76.9 µM.

Take `Cc1ccc(NC(=O)Cc2cn3ccsc3n2)nc1`: the Potency is inactive: > 76.9 µM.

On to `CCC(c1nnnn1CCOC)N(Cc1ccc(C)cc1)Cc1cc2cc(OC)ccc2[nH]c1=O` (stereo unspecified), for which the Potency was inactive: > 76.9 µM.
